# From paper PMC10979476, “Molecular Deformation Is a Key Factor in Screening Aggregation Inhibitor for Intrinsically Disordered Protein Tau” (ACS Central Science, 2024)
# Tested on: total tau in the hippocampus
# Assay: Intracerebroventricular injection in 3xTg AD mice, immunohistochemistry with Tau-5
# Format: in vivo
# Conditions: 10-month-old 3xTg mice, 5 μL 1 mM, 48 h
# Text: We next sought to determine whether IPP1 could also promote tau clearance with a transgenic mouse model. Transgenic modeling of AD is a promising tool in understanding the underlying mechanisms. […] The 3xTg-AD is an ideal model for inhibiting tau pathologies. The 3xTg AD model mice expressing APP Swedish, PSEN1M146 V, and MAPT P301L were bred in our AAALAC-accredited facility. The 3xTg mice at 10 months old were randomly allocated into a vehicle group (n = 3) and an IPP1 group (n = 3). For orthotopic brain injections and drug delivery, the mice were anesthetized with halothane (induction 5% and maintenance 1%) and fixed to the stereo tactical frame. The holes were drilled stereotaxically in the skull at a cerebroventricular location (posterior 0.22 mm, lateral 0.9 mm, and ventral 2.3 mm relative to the bregma). Using a microinjection system (Shenzhen RWD Life Technology Co., Ltd.; RWD 69100), IPP1 (5 μL, 1 mM) was diluted with 20% HP-β-CD, which was administered by direct intracranial injection, and 20% HP-β-CD solution was used as a loading control. […] The cell slides were mounted with an anti-fluorescence quencher, and the outer ring is fixed with nail polish. Fluorescence images were obtained under a confocal microscope (Leica TCS SP8). […]
compound,measurement,value
"O=C1Nc2cccc(-c3ccc(N4CCCC4)nc3)c2C1=O [IPP1, 4-(6-(pyrrolidin-1-yl)pyridin-3-yl)indoline-2,3-dione]",total tau levels in the hippocampus,reduced total tau levels in the hippocampus
